Measured values: publication PMC12040169 (PLOS Biology, 2025)
The other results are listed elsewhere or left out.

What follows are compounds tested on T1, C. trachomatis L2/434/Bu expressing GFP (CTL2-GFP). Settings: total inclusion area; 28.5 h, 10 µM; inhibitor.
T1 construct: L2/434/Bu GFP intracellular growth in HeLa cells
Design: species or system HeLa; C. trachomatis total inclusion area by high-content imaging, normalised to DMSO
Source text: In this process, we also complemented the assay described above with an imaging-based readout (Fig 1B). After measurements of bulk GFP and resorufin fluorescence, cells were fixed, stained with the DNA dye Hoechst, and imaged at a high-content imaging platform to detect chlamydial inclusions (GFP) and host cell nuclei (Hoechst). The total area and number of inclusions in individual wells and the number of nuclei then served as additional proxies for chlamydial growth and host cell viability. […] MICs were calculated as described above.

Compound | % of control remaining
COc1ccccc1NC(=O)C1CCN(C(=O)OC(C)(C)C)CC1 [CBK296746] | 102.658
CC(C)(C)c1ccc(C(=O)N2CCC(C(=O)O)CC2)cc1 [CBK286949] | 84.0584
Cc1ccn2c(CN3CCCC(Cn4ccnc4C)C3)c(C)nc2c1 (centres unmarked) [CBK281964] | 58.8211
COc1ccc(CC(=O)Nc2cccc(-c3cn4ccc(C)cc4n3)c2)cc1OC [CBK269148] | 123.564
Cc1cc(S(=O)(=O)N(C)CCC#N)c(C)cc1Cl [CBK043787] | 92.5966
O=C(c1cscn1)N1CCN(CCc2ccccc2)CC1 [CBK200230] | 98.5452
CSC(C)C(=O)N(C)C1CCN(c2ncnc3ccccc23)CC1 (centres unmarked) [CBK305300] | 61.0314
Cc1n[nH]c(C)c1C12CC3CC(CC(CC(=O)O)(C3)C1)C2 [CBK288241] | 98.375
CCCCSc1nc(N)cc(N2CCC(C(=O)N3CCOCC3)CC2)n1 [CBK306619] | 82.4374
CC(C)Nc1cncc(OC2CCOC2)n1 (centres unmarked) [CBK115882] | 121.743
Cc1cccc(-c2nnc(SCC3CC3)n2CC2CCCCC2)c1 [CBK085423] | 96.495
CCOC(=O)c1c(N)n(-c2cccc(C(F)(F)F)c2)c2nc3ccccc3nc12 [CBK264977] | 96.1461
CCCn1nnc(NCc2ccc(Cl)cc2)n1 [CBK288089] | 88.9338
COc1ccc(S(=O)(=O)N(Cc2c(F)cccc2F)C2CCN(C)CC2)cc1 [CBK161910T] | 59.2364
CC(=O)N1CCc2cc(-c3cc4c(C)cccn4c3)ccc21 [CBK285225] | 110.806
COc1cc(-c2cncc(NCc3ccncc3)n2)cc(OC)c1OC [CBK065263] | 108.602
O=C(CCC(=O)Nc1ccc(I)cc1)N/N=C/c1ccc(Br)cc1 [CBK262010] | 98.5658
Cn1cc(C2CCCCCN2C(=O)c2ccccc2F)cn1 (centres unmarked) [CBK285119] | 78.0241
COc1ccc2cc(COC(=O)c3ccc([S+](C)[O-])cc3)c(Cl)nc2c1 (centres unmarked) [CBK298267] | 92.1954
CC(NC(=O)Cc1ccc(F)cc1)c1nc2cccnc2n1C(C)C (centres unmarked) [CBK283830] | 97.5204
Cc1ccc(NC(=O)Cc2ccc(N(C)C)cc2)c(C)n1 [CBK200295] | 119.248

Compound | % of control remaining
CCCCNc1cc(N2CCOC(Cn3cc(C)cn3)C2)nc(N)n1 (centres unmarked) [CBK305417] | 2.719
CC(C)OC(=O)Cn1c(C2CCCNC2)cc2cccnc21 (centres unmarked) [CBK285058] | 81.7933
CCCCOC(=O)c1c(N)n(-c2ccc(C(=O)O)cc2)c2nc3ccccc3nc12 [CBK265046] | 118.819
CC(C)(C)CC(C)(C)NC(=O)NCCc1cccs1 [CBK038697] | 86.6225
CCn1cncc1C(=O)Nc1ccc(-n2ccnc2C(C)C)cc1 [CBK281379] | 82.993
CCN1CC2(CCN(Cc3ncc[nH]3)CC2)c2ccccc21 [CBK131486] | 136.914
Cn1c(SCC(=O)N2CCN(c3cccc(Cl)c3)CC2)nnc1-c1cccc([N+](=O)[O-])c1 [CBK266264] | 111.308
CN(C)CCn1cnc2c1c(=O)[nH]c(=O)n2Cc1ccccc1 [CBK291235] | 91.6707
O=C(Oc1ccc(F)cc1C(=O)/C=C/c1cccs1)c1ccc([N+](=O)[O-])cc1 [CBK264925] | 89.3532
CCCC(=O)N1CCC[C@H]1Cn1nc(-c2ccc(F)cc2)ccc1=O [CBK284288] | 81.6368
Cc1nc(C)c(CCC(=O)Nc2ccc(N3CCOCC3)cc2)c(=O)[nH]1 [CBK306059] | 54.5391
Cc1cnn(C2CN(CC(=O)N3CCc4sccc4C3)C2)c1 [CBK305097] | 101.648
CCn1c2c(c3cc(S(=O)(=O)c4ccc(C(F)(F)F)cc4)ccc31)CCNCC2 [CBK018453C] | 0.6718
CC1CCN(C(=S)NC2CC3CCC2C3)CC1 (centres unmarked) [CBK085998] | 97.0369
C=CCNC(=O)N1CC[C@H]2CC(=O)N(Cc3ccc(OC)cc3)CC[C@H]2C1 [CBK288790] | 109.131
Cc1cc(O)n2nc(C)c(-c3ccc(F)cc3)c2n1 [CBK283642] | 93.3132
COc1ccc2[nH]cc(CC3CCNCC3)c2c1 [CBK012779] | 91.0649
COc1ccc(CNC(=O)c2ccccc2NS(=O)(=O)c2cc(Cl)ccc2Cl)cc1 [CBK113964] | 98.247
COC(=O)CNC(=O)c1ccncc1Br [CBK057760] | 62.9921
COc1cc(/C=N/Nc2nc(Nc3ccccc3)nc(Nc3ccccc3)n2)ccc1O [CBK262584] | 81.9868
